Source: PubChem BioAssay AID504832 (National Center for Advancing Translational Sciences (NCATS), 2011)
Where “and” joins values, the source holds several entries; their conditions need not be identical. Identical values can stand only once. About 18,000 (5.8%) of roughly 310,000 compounds were called active. Inconclusive means that the source gave no clear call. Such entries were picked first, then a sample of the others. Calls follow the shape of the dose curve; as a rule, active = well fitted inhibition curve with a large enough effect; inconclusive = small, poorly fitted or top-dose-only effect, or another doubt; inactive = no such curve, though single readings can be large or run the other way. Potencies beside an inconclusive call are fits to weak or partial responses and may not hold up.

Assay: Primary qHTS for delayed death inhibitors of the malarial parasite plastid, 48 hour incubation
Conditions: P. falciparum luciferase growth in erythrocytes; series mostly up to 28.7 µM; activity change, negative = inhibition: at the top concentration
Procedure, shortened: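 Luminescence readout; reporter = integrated firefly luciferase in P. falciparum. RBC culture at 2% hematocrit, 0.1% parasitemia final, 37 C/5% CO2; decreased signal taken as growth inhibition.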
% is scaled to controls: 0 for no effect and ±100 for the full control effect; potency is read from the fitted curve at half-maximal effect; tags tell the direction and shape of the fitted curve.

Row | SMILES | Potency | activity change, negative = inhibition
1 | COc1ccc(CCn2c(=N)c(C(=O)NCCN3CCOCC3)cc3c(=O)n4cccc(C)c4nc32)cc1OC | active: 0.738 µM | –
2 | COc1ccc(CCNC(=O)Cn2cc(C(F)(F)F)cc(Cl)c2=O)cc1OC | active: 6.57 µM | –
3 | Cc1ccc(CNC(=O)C(Cc2ccccc2)n2cccc2)cc1 (centres undefined) | inconclusive: 13.1 µM [inhibitor, partial curve] | –
4 | c1ccc(C2Nc3cccc4cccc(c34)N2)cc1 | inconclusive: 10.4 µM [inhibitor, single point] | –
5 | COc1cccc(N2CCN(CC(=O)Nc3ccnn3C3CCCC3)CC2)c1 | inconclusive: 9.28 µM [inhibitor, single point] | –
6 | CCOc1ccccc1N1CCN(C(=O)c2c(-c3ccccc3Cl)noc2C)CC1 | active: 9.28 µM | –
7 | COC(=O)c1ccsc1NS(=O)(=O)c1ccccc1 | – | inactive: 5.55%
8 | O=C1CSC(=O)N1CC(O)COc1ccc(Cl)cc1 (centres undefined) | – | inactive: 18.6%
9 | O=C(Cn1cnc(S(=O)(=O)N2CCCCC2)c1)N1CCN(c2ccc([N+](=O)[O-])cc2)CC1 | inconclusive: 3.7 µM [inhibitor, partial curve] | –
10 | Cc1cccc(/C(N)=N/OC(=O)CCC2CCCCC2)c1 | – | inactive: 15.8%
11 | CS(=O)(=O)c1ccccc1C(=O)Nc1cccc(-c2nc3ccccc3o2)c1 | – | inactive: 14.4%
12 | O=C(O)CCCCn1c(SCc2cc(=O)n3cc(Cl)ccc3n2)nc2ccsc2c1=O | inconclusive: 13.1 µM [inhibitor, partial curve, poor fit] | –
13 | CCCCC(=O)Nc1sc(C(=O)N(CC)CC)c(C)c1C(=O)OC | inconclusive: 18.5 µM [inhibitor, single point] | –
14 | Cc1ccc(C(=O)N2CCN(c3ccc(NC(=O)CSc4ccc(Cl)cc4)cc3)CC2)cc1 | inconclusive: 8.28 µM [inhibitor, partial curve, poor fit] | –
15 | CCSc1ccccc1-c1nc(-c2ccncc2)no1 | inconclusive: 18.5 µM [inhibitor, single point] | –
16 | COc1cccc2sc(Nc3nnc(-c4ccccc4Cl)o3)nc12 | active: 9.28 µM | –
17 | C=C(C)COc1ccc2c(C)c(CC(=O)N3C[C@H]4C[C@@H](C3)c3cccc(=O)n3C4)c(=O)oc2c1C | inconclusive: 4.15 µM [inhibitor, single point] | –
18 | CC(=O)NCCC(=O)Nc1sc2c(c1-c1nc3ccccc3[nH]1)CCCC2 | inconclusive: 9.28 µM [inhibitor, single point] | –
19 | CCOc1ccc(NC(=S)NNC(=O)c2ccc(Br)cc2)cc1 | inconclusive: 14.7 µM [inhibitor, single point] | –
20 | CN(C)CCN1CCc2ccccc21 | inconclusive: 8.28 µM [inhibitor, partial curve, poor fit] | –
21 | Cc1ccccc1CNC(=O)C(=O)NCC1OCCCN1S(=O)(=O)c1cccs1 (centres undefined) | inconclusive: 8.28 µM [inhibitor, partial curve, poor fit] | –
22 | CC(Sc1ccc(Cl)cc1)C(=O)Nc1ccc(S(=O)(=O)N2CCOCC2)cc1 (centres undefined) | inconclusive: 5.86 µM [inhibitor, partial curve] | –

Row | SMILES | Potency | activity change, negative = inhibition
23 | Clc1ccc(-c2c[n+]3c(n2-c2ccccc2)SCC3)cc1 | active: 1.17 µM | –
24 | Cc1cccc(NC(=O)CN2CCOCC2)c1C | – | inactive: 67.6%
25 | CC1(C)CC(=O)C2=C(C1)OC(N)=C(C#N)C2C1C=CCCC1 (centres undefined) | inconclusive: 5.86 µM [inhibitor, partial curve, poor fit] | –
26 | Cc1ccc2[nH]c3c(c2c1)CCCC3NCCO (centres undefined) | inconclusive: 18.5 µM [inhibitor, single point] | –
27 | CN1C(=O)/C(=C/c2cc(N=Nc3ccccc3)ccc2O)SC1=S | inconclusive: 18.5 µM [inhibitor, single point] | –
28 | Cc1nn(-c2ccccc2)c(C)c1NC(=O)CCl | active: 4.65 µM | –
29 | CCCn1nc(C(=O)NNC(=O)CCCOc2ccc(C)cc2)c2ccccc2c1=O | – | inactive: -2.95%
30 | CCN1C(=NCC(C)C)N[C@@H](CCc2ccccc2)[C@H](C(=O)NCC(C)C)[C@H]1C | inconclusive: 13.1 µM [inhibitor, single point] and inconclusive: 11.7 µM [inhibitor, single point] | –
31 | CCOc1ccc(N=C2NN=C(c3cc(C)n(CC4CCCO4)c3C)CS2)cc1 (centres undefined) | inconclusive: 2.62 µM [inhibitor, full curve] | –
32 | Cc1ccc(CN2CCC(n3nccc3NC(=O)c3ccccc3C)CC2)o1 | – | inactive: -19.3%
33 | CCc1ccccc1NC(=S)Nn1cnnc1 | – | inactive: 17.3%
34 | Cc1ccc(C)c(S(=O)(=O)N2CCCC2CNC(=O)c2ccc([N+](=O)[O-])cc2)c1 (centres undefined) | active: 10.4 µM | –
35 | Cc1nnc(SCc2nc3sc4c(c3c(=O)[nH]2)CCCC4)n(N)c1=O | inconclusive: 5.86 µM [inhibitor, partial curve] | –
36 | COc1ccc(N2CCN(c3oc(COc4ccc(Cl)cc4)nc3C#N)CC2)cc1 | inconclusive: 18.5 µM [inhibitor, single point] | –
37 | O=C(NCc1cccs1)C(=O)NCC1OCCCN1S(=O)(=O)c1ccccc1 (centres undefined) | – | inactive: 5.88%
38 | CC(C)CCNC(=O)C1c2ccccc2Oc2ccccc21 | – | inactive: 48.7%
39 | NC(=O)c1c(NC(=O)c2cccc(N3C(=O)CCC3=O)c2)sc2c1CCCCC2 | inconclusive: 1.17 µM [inhibitor, partial curve, poor fit] | –
40 | COc1cc([C@@H]2CC=C(C(=O)O)CN2S(=O)(=O)c2ccc(C)cc2)cc(OC)c1OC | inconclusive: 11.7 µM [inhibitor, single point] | –
41 | C/C(=C1\SC(N2CCOCC2)=NC1=O)c1ccccc1 | inconclusive: 4.65 µM [inhibitor, partial curve] | –
42 | O=C(c1ccco1)N1CCN(Cc2cc(=O)c(OCc3ccc(F)cc3)co2)CC1 | inconclusive: 10.4 µM [inhibitor, single point] | –
43 | COc1cc(OC)c(OC)cc1CNC(=O)c1ccc(S(=O)(=O)N2CC(C)OC(C)C2)cc1 (centres undefined) | inconclusive: 11.7 µM [inhibitor, partial curve] | –
44 | CCn1cc(C(=O)NCc2ccc(Cl)cc2)c(=O)c2cc(S(=O)(=O)N(C)C)ccc21 | inconclusive: 9.28 µM [inhibitor, partial curve] | –
